Reference: the supplement of paper PMC12217912
This is one part of the list. The full chains were built here from the parent and the listed change. Values near 0.05 are background.

B1: TEV protease; numbered along this chain (parent)
chain: MGESLFKGPRDYNPISSSICHLTNESDGHTTSLYGIGFGPFIITNKHLFRRNNGTLVVQSLHGVFKVKDTTTLQQHLVDGRDMIIIRMPKDFPPFPQKLKFREPQREERICLVTTNFQTKSMSSMVSDTSCTFPSGDGIFWKHWIQTKDGQCGSPLVSTRDGFIVGIHSASNFTNTNNYFTSVPKNFMELLTNQEAQQWVSGWRLNADSVLWGGHKVFMVKPEEPFQPVKEATQL

Variants of: B1
Assay: raw area under fraction-flipped curve 0-4 h after induction (AUC4h, not background-subtracted), DNA-recorder readout of cleavage of the substrate (dimensionless); higher = more cleavage of the substrate by the protease variant
Details: temperature: 34 °C; time window: 0-4 h after rhamnose induction
Experimental: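 In vivo DNA recorder in E. coli TOP10(DE3) ΔrhaA at 34 °C. Each TEVp single-site mutant (parent TEVp 0) is paired with a single-site variant of the 7-mer TEVs (canonical ENLYFQ|S). The substrate sits between flexible linkers in a Bxb1-sfGFP-TEVs-SsrA fusion, so cleavage stabilises Bxb1 and speeds flipping of a recombination array, read by NGS. The value is the raw area under the fraction-flipped curve over 0-4 h after rhamnose induction (AUC4h), with ≥20 reads per time point. It is not background-subtracted; inactive controls average about 0.047.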
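Note: Bxb1 expression induced with 0.2% (w/v) L-rhamnose at OD600 near 0.5, cultures sampled hourly, flipped fraction per protease–substrate barcode pair counted by paired-end Illumina sequencing.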

Variant | area with substrate ENAYFQS | area with substrate ENCYFQS | area with substrate ENDYFQS | area with substrate ENQYFQS | area with substrate ENEYFQS | area with substrate ENFYFQS | area with substrate ENGYFQS | area with substrate ENHYFQS | area with substrate ENIYFQS | area with substrate ENKYFQS | area with substrate ENNYFQS | area with substrate ENPYFQS | area with substrate ENRYFQS | area with substrate ENSYFQS | area with substrate ENTYFQS | area with substrate ENVYFQS | area with substrate ENWYFQS | area with substrate ENYYFQS | area with substrate ENMYFQS
G2M | 0.0543 | 0.0842 | 0.0593 | 0.0702 | – | – | – | – | – | – | – | – | – | – | – | – | – | – | –
S4G | 0.0658 | – | 0.0499 | 0.061 | 0.0582 | 0.0605 | 0.0589 | 0.0654 | 0.119 | 0.0531 | 0.064 | 0.0619 | 0.0526 | 0.0803 | 0.0635 | 0.0985 | 0.0562 | 0.0644 | –
S4M | 0.065 | 0.0684 | 0.0752 | 0.0584 | 0.0622 | 0.0575 | – | 0.0657 | – | 0.0553 | 0.0217 | 0.0617 | – | 0.057 | 0.0659 | 0.0711 | 0.0573 | – | 0.0798
S4N | 0.0592 | 0.0658 | 0.0555 | 0.0611 | 0.0501 | – | 0.0594 | 0.057 | – | 0.0283 | 0.059 | – | 0.0571 | 0.0602 | 0.0627 | 0.0693 | – | 0.047 | –
R10C | 0.0596 | – | 0.0529 | – | – | 0.0561 | 0.0678 | – | – | – | 0.0677 | 0.0499 | 0.0537 | 0.0616 | 0.0675 | 0.0722 | – | – | –
R10P | 0.0632 | 0.0804 | – | 0.0637 | – | 0.0589 | – | 0.0671 | – | 0.0662 | 0.0616 | – | 0.0517 | 0.101 | – | 0.0843 | 0.0441 | 0.0484 | –
R10V | 0.0614 | 0.0638 | 0.0643 | 0.0541 | 0.06 | 0.0464 | 0.0689 | 0.0552 | – | – | – | 0.0553 | 0.0559 | 0.0538 | 0.0916 | 0.07 | – | – | 0.0784
D11A | 0.0634 | 0.0765 | 0.0626 | 0.0497 | 0.0617 | 0.0353 | 0.043 | 0.0639 | 0.0946 | 0.0626 | 0.0808 | 0.0555 | 0.0561 | 0.0604 | 0.0626 | 0.0785 | 0.0388 | 0.0691 | 0.0675
D11L | 0.0597 | 0.0662 | 0.0643 | 0.0655 | 0.0642 | 0.0643 | 0.0634 | 0.0642 | 0.0808 | 0.0608 | 0.0632 | 0.0676 | 0.0488 | 0.063 | 0.0563 | 0.0774 | 0.057 | 0.0501 | 0.0567
D11Q | 0.0575 | 0.0653 | 0.0582 | 0.0638 | 0.0635 | 0.0673 | 0.0559 | 0.0603 | 0.0866 | 0.0612 | 0.0685 | 0.0496 | – | 0.0672 | 0.059 | 0.0702 | – | – | 0.083
D11S | 0.0636 | – | 0.0656 | 0.0582 | 0.0492 | 0.0624 | – | 0.0616 | 0.0887 | – | 0.0654 | 0.0612 | 0.0512 | 0.0628 | 0.0583 | 0.0642 | 0.065 | 0.0526 | 0.0792
Y12H | 0.0535 | 0.0691 | 0.0476 | 0.0562 | 0.0606 | 0.0671 | 0.0631 | – | – | 0.0724 | 0.0568 | – | – | 0.0639 | 0.0711 | – | – | 0.0637 | 0.074
Y12K | 0.0668 | 0.0799 | 0.0598 | 0.0596 | 0.0618 | 0.0584 | 0.0552 | – | – | 0.0614 | – | 0.0605 | 0.0738 | 0.091 | 0.0645 | 0.0644 | – | – | 0.0727
Y12S | 0.0779 | 0.0595 | 0.0658 | 0.066 | 0.064 | 0.0637 | 0.0728 | 0.0643 | – | 0.0534 | – | 0.0638 | – | 0.0598 | 0.0878 | 0.0843 | – | 0.047 | 0.0717
Y12W | 0.0581 | 0.0806 | 0.059 | 0.0577 | 0.05 | 0.067 | 0.0563 | 0.0597 | – | 0.09 | 0.0716 | 0.0528 | 0.0777 | 0.0548 | 0.061 | 0.0918 | 0.0511 | 0.0446 | 0.0838
N13G | 0.0547 | 0.0639 | 0.0683 | 0.0638 | 0.0623 | 0.0614 | 0.0612 | – | 0.0785 | – | 0.0677 | 0.059 | 0.0694 | 0.0621 | 0.0667 | 0.0741 | 0.0353 | 0.0508 | –
N13K | 0.064 | 0.078 | 0.0595 | 0.0667 | 0.066 | 0.0573 | 0.0672 | 0.0563 | 0.0825 | 0.0616 | 0.0515 | 0.0623 | 0.0614 | 0.0662 | 0.052 | 0.062 | – | 0.0642 | 0.0756
N13R | 0.0637 | 0.073 | 0.0535 | 0.0639 | 0.0637 | 0.0622 | 0.0648 | 0.0705 | 0.0952 | – | 0.0599 | 0.0536 | – | 0.0666 | 0.0653 | 0.0639 | 0.0511 | 0.067 | –
P14C | 0.0649 | 0.0631 | 0.0652 | 0.0669 | 0.0625 | 0.0565 | 0.0593 | 0.0689 | 0.178 | 0.0621 | 0.0578 | 0.0538 | 0.0497 | 0.0586 | 0.0667 | 0.0769 | 0.064 | 0.0658 | 0.0812
P14W | 0.06 | 0.0697 | 0.0594 | 0.0556 | 0.0557 | 0.0547 | 0.0716 | 0.0671 | – | 0.0598 | 0.0662 | 0.0452 | 0.0481 | 0.0585 | 0.078 | – | 0.0528 | – | –
I15C | 0.0459 | 0.0555 | 0.0446 | 0.0532 | 0.0605 | 0.046 | 0.0544 | 0.0578 | 0.101 | 0.0595 | 0.0552 | 0.0277 | 0.0522 | 0.0562 | 0.0641 | 0.0785 | 0.0653 | 0.0742 | 0.0581
I15S | 0.0814 | – | 0.0579 | 0.0615 | 0.0446 | 0.0726 | 0.0327 | 0.0571 | – | 0.0425 | 0.0454 | 0.0974 | 0.0251 | 0.053 | 0.0557 | 0.0898 | – | 0.0667 | 0.0644
S17D | 0.064 | 0.0554 | 0.0569 | 0.0617 | 0.0569 | 0.079 | 0.0603 | 0.0594 | 0.113 | 0.0699 | 0.058 | 0.0697 | 0.0635 | 0.0626 | 0.0635 | 0.0933 | 0.0656 | – | 0.0862
